Measured values: the supplement of paper PMC11417369
± gives the standard deviation of the averaged measurements. This is one part of the list.

Test system: PfAP2-G AP2 domain (GST-tagged)
Assay: gcPBM binding intensity (ln(normalized median fluorescence intensity)); higher = stronger DNA binding
Method in brief: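 GST-tagged P. falciparum DNA-binding domains, expressed in E. coli (about 25 μg on average), were applied for 1 h to an Agilent 4 × 180k array of primer-extended double-stranded 36-bp intergenic genomic probes plus negative controls. The binding buffer was 1× PBS with 1% milk, 0.2 mg/ml BSA, 0.5% salmon testes DNA and 0.03% Triton X-100. Bound protein was detected with Alexa488 anti-GST antibody and scanned at 488 nm. Binding intensity is the highest Masliner-normalised natural-log median intensity across replicate spots of either probe orientation.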

Row | Sequence | gcPBM binding intensity (ln)
1 | TATTGATAAAAAATATGTACATATATACATATATAT [XGTACX_site3821] | 11.1 ± 0.61
2 | ATATATATATATATATGTACGTAAACAAAAATTTAT [XGTACX_site6780] | 11.4 ± 0.91
3 | ATATACATATTTTTGACACACATTAGGAAAATATAT [CACACA_site4123] | 10.1 ± 0.15
4 | ATGTAATAAATACTACGTACATATATATGTGTTAAT [XGTACX_site3265] | 11.3 ± 0.73
5 | ATATATAAATATAGCATACACACAAAAAAATAAAAT [CACACA_site2332] | 10 ± 0.11
6 | CAACAAAAGAAACACACACACACAAACACAAAAAAA [CACACA_site3389] | 10.3 ± 0.28
7 | TGTATACCTTAATATACACACATACATATATATATA [CACACA_site8370] | 10.3 ± 0.5
8 | GGATATATTATATGTACACACATATATAACGGATAT [CACACA_site1309] | 11.5 ± 0.8
9 | TATTATTTATATGATACACACGTACATATACACATA [CACACA_site9275] | 11.3 ± 0.87
10 | TTCATTAAAACGAATACACACATAAATATATAAAAG [CACACA_site4824] | 10.19 ± 0.021
11 | AAATATATATATATTACACACTATATATTTATTTAT [CACACA_site681] | 9.67 ± 0.16
12 | CATATCAAAAAAAAATGTACACGTATATACAATACA [XGTACX_site2660] | 11.4 ± 0.76
13 | TTTTAAAATAAAAAAATAAAAAAAGGGGAAAAAAAA [CACACA_negctrl_site847] | 9.6 ± 0.33
14 | ATAACTAAATTATATTGTACAAAATAATTATATATT [XGTACX_site1188] | 10.7 ± 0.3
15 | ATATACTTATATATTGCACACATCTAATATTTTGAA [CACACA_site3165] | 10.1 ± 0.23
16 | TATAATATGTTTGATGGTACACGTAAACACCTTGCA [XGTACX_site1643] | 11.1 ± 0.68
17 | TTTAATCAACAAAATCTACACACTAATATGAAATAT [CACACA_site9250] | 9.81 ± 0.028
18 | ATACACGTTTTACAATGTACAGAAAGTATACATAAT [XGTACX_site4585] | 10.8 ± 0.36
19 | AAGAATTTTCGATTTGCACACATTTGTAAAATAAAA [CACACA_site2354] | 10.1 ± 0.23
20 | GTATTTTTTTTCTTTTGTACATATATATAAAGAATA [XGTACX_site4569] | 11.1 ± 0.71
21 | TATTATATATATAAATGTACATATTATTTTTCTTTT [XGTACX_site8670] | 11.1 ± 0.51
22 | CCCACAATGGTTTATATACACACTGTTGCAAATTCT [CACACA_site3066] | 10.18 ± 0.092
23 | ATTGAAAAAATACAATGTACATAGTAATACAAAGAA [XGTACX_site4142] | 10.8 ± 0.43
24 | AATTATACTCACGTTACACACACACTAGATATATAT [CACACA_site6133] | 10.29 ± 0.099
25 | TTTTTTTTTTTTTTTTGTACATATATATAAAAAATA [XGTACX_site2772] | 10.8 ± 0.84
